{"source": "the supplement of paper PMC8728848", "binders": {"B1": {"name": "Annexin-A1 (Mus musculus), P10107 (protein)", "chain": "MAMVSEFLKQARFLENQEQEYVQAVKSYKGGPGSAVSPYPSFNVSSDVAALHKAIMVKGVDEATIIDILTKRTNAQRQQIKAAYLQENGKPLDEVLRKALTGHLEEVVLAMLKTPAQFDADELRGAMKGLGTDEDTLIEILTTRSNEQIREINRVYREELKRDLAKDITSDTSGDFRKALLALAKGDRCQDLSVNQDLADTDARALYEAGERRKGTDVNVFTTILTSRSFPHLRRVFQNYGKYSQHDMNKALDLELKGDIEKCLTTIVKCATSTPAFFAEKLYEAMKGAGTRHKALIRIMVSRSEIDMNEIKVFYQKKYGISLCQAILDETKGDYEKILVALCGGN"}}, "assay_in_all_cases": "glycan array binding signal (z-score within array); higher = stronger binding", "details_in_all_cases": "glycan notation: IUPAC condensed, linker removed", "key": {"[1]": {"biological_target": "Gal(b1-3)[Fuc(a1-4)]GlcNAc", "procedure,_shortened": "(§1)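 The Consortium for Functional Glycomics database supplied 3228 glycan arrays, of which those lacking an available protein sequence were dropped. The binding signal, a within-array Z-score, was averaged across arrays of the same protein sequence and across linkers. Negative scores can be read as non-binding.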"}, "[2]": {"biological_target": "Gal(b1-3)[Fuc(a1-4)]GlcNAc(b1-3)Gal(b1-3)[Fuc(a1-4)]GlcNAc", "procedure,_shortened": "as §1"}, "[3]": {"biological_target": "Gal(b1-3)[Fuc(a1-4)]GlcNAc(b1-3)Gal(b1-4)GlcNAc", "procedure,_shortened": "as §1"}, "[4]": {"biological_target": "Gal(b1-3)[Fuc(a1-4)]GlcNAc(b1-3)Gal(b1-4)[Fuc(a1-3)]GlcNAc", "procedure,_shortened": "as §1"}, "[5]": {"biological_target": "Gal(b1-3)[GlcNAc(b1-6)]GalNAc", "procedure,_shortened": "as §1"}, "[6]": {"biological_target": "Gal(b1-3)[GlcNAc(b1-6)]GlcNAc", "procedure,_shortened": "as §1"}, "[7]": {"biological_target": "Gal(b1-3)[Neu5Ac(a2-6)]GalNAc", "procedure,_shortened": "as §1"}, "[8]": {"biological_target": "Gal(b1-3)[Neu5Ac(a2-6)]GlcNAc", "procedure,_shortened": "as §1"}, "[9]": {"biological_target": "Gal(b1-3)[Neu5Ac(a2-6)]GlcNAc(a1-4)Gal(b1-4)Glc", "procedure,_shortened": "as §1"}, "[10]": {"biological_target": "Gal(b1-3)[Neu5Ac(b2-6)]GlcNAc", "procedure,_shortened": "as §1"}, "[11]": {"biological_target": "Gal(b1-4)GalNAc(a1-3)[Fuc(a1-2)]Gal(b1-4)GlcNAc", "procedure,_shortened": "as §1"}, "[12]": {"biological_target": "Gal(b1-4)GalNAc(b1-3)[Fuc(a1-2)]Gal(b1-4)GlcNAc", "procedure,_shortened": "as §1"}, "Gal(b1-4)Glc": {"biological_target": "Gal(b1-4)Glc", "procedure,_shortened": "as §1"}, "Gal(b1-4)Glc6S": {"biological_target": "Gal(b1-4)Glc6S", "procedure,_shortened": "as §1"}, "Gal(b1-4)GlcNAc": {"biological_target": "Gal(b1-4)GlcNAc", "procedure,_shortened": "as §1"}, "[13]": {"biological_target": "Gal(b1-4)GlcNAc(b1-2)Man(a1-3)[Gal(b1-4)GlcNAc(b1-2)Man(a1-6)]Man(b1-4)GlcNAc(b1-4)GlcNAc", "procedure,_shortened": "as §1"}, "[14]": {"biological_target": "Gal(b1-4)GlcNAc(b1-3)Gal(b1-3)GlcNAc", "procedure,_shortened": "as §1"}, "[15]": {"biological_target": "Gal(b1-4)GlcNAc(b1-3)Gal(b1-4)Glc", "procedure,_shortened": "as §1"}, "[16]": {"biological_target": "Gal(b1-4)GlcNAc(b1-3)Gal(b1-4)GlcNAc", "procedure,_shortened": "as §1"}, "[17]": {"biological_target": "Gal(b1-4)GlcNAc(b1-3)Gal(b1-4)GlcNAc(b1-3)Gal(b1-4)GlcNAc", "procedure,_shortened": "as §1"}, "[18]": {"biological_target": "Gal(b1-4)GlcNAc(b1-3)Gal(b1-4)[Fuc(a1-3)]GlcNAc(b1-3)Gal(b1-4)[Fuc(a1-3)]GlcNAc", "procedure,_shortened": "as §1"}, "[19]": {"biological_target": "Gal(b1-4)GlcNAc(b1-3)GalNAc", "procedure,_shortened": "as §1"}, "[20]": {"biological_target": "Gal(b1-4)GlcNAc(b1-3)[Gal(b1-4)GlcNAc(b1-6)]GalNAc", "procedure,_shortened": "as §1"}, "[21]": {"biological_target": "Gal(b1-4)GlcNAc(b1-6)GalNAc", "procedure,_shortened": "as §1"}, "[22]": {"biological_target": "Gal(b1-4)GlcNAc(b1-6)[Gal(b1-3)]GalNAc", "procedure,_shortened": "as §1"}, "[23]": {"biological_target": "Gal(b1-4)GlcNAc(b1-6)[Gal(b1-3)]GlcNAc", "procedure,_shortened": "as §1"}, "Gal3S(b1-3)GalNAc": {"biological_target": "Gal3S(b1-3)GalNAc", "procedure,_shortened": "as §1"}, "Gal3S(b1-3)GlcNAc": {"biological_target": "Gal3S(b1-3)GlcNAc", "procedure,_shortened": "as §1"}, "[24]": {"biological_target": "Gal3S(b1-3)[Fuc(a1-4)]GlcNAc", "procedure,_shortened": "as §1"}, "Gal3S(b1-4)Glc": {"biological_target": "Gal3S(b1-4)Glc", "procedure,_shortened": "as §1"}, "Gal3S(b1-4)Glc6S": {"biological_target": "Gal3S(b1-4)Glc6S", "procedure,_shortened": "as §1"}, "Gal3S(b1-4)GlcNAc": {"biological_target": "Gal3S(b1-4)GlcNAc", "procedure,_shortened": "as §1"}, "Gal3S(b1-4)GlcNAc6S": {"biological_target": "Gal3S(b1-4)GlcNAc6S", "procedure,_shortened": "as §1"}, "Gal3S6S(b1-4)GlcNAc": {"biological_target": "Gal3S6S(b1-4)GlcNAc", "procedure,_shortened": "as §1"}, "Gal3S6S(b1-4)GlcNAc6S": {"biological_target": "Gal3S6S(b1-4)GlcNAc6S", "procedure,_shortened": "as §1"}, "Gal4S(b1-4)GlcNAc": {"biological_target": "Gal4S(b1-4)GlcNAc", "procedure,_shortened": "as §1"}, "Gal4S6S(b1-4)GlcNAc": {"biological_target": "Gal4S6S(b1-4)GlcNAc", "procedure,_shortened": "as §1"}, "Gal6S(b1-4)Glc": {"biological_target": "Gal6S(b1-4)Glc", "procedure,_shortened": "as §1"}}, "note": "This is one part of the list."}
{"binder": "B1", "values": [{"measurement": "glycan array binding signal (z-score)", "setting": "[1]", "value": -0.466}, {"measurement": "glycan array binding signal (z-score)", "setting": "[2]", "value": 0.133}, {"measurement": "glycan array binding signal (z-score)", "setting": "[3]", "value": -0.728}, {"measurement": "glycan array binding signal (z-score)", "setting": "[4]", "value": -0.729}, {"measurement": "glycan array binding signal (z-score)", "setting": "[5]", "value": -0.488}, {"measurement": "glycan array binding signal (z-score)", "setting": "[6]", "value": -0.262}, {"measurement": "glycan array binding signal (z-score)", "setting": "[7]", "value": -0.343}, {"measurement": "glycan array binding signal (z-score)", "setting": "[8]", "value": -0.592}, {"measurement": "glycan array binding signal (z-score)", "setting": "[9]", "value": -0.702}, {"measurement": "glycan array binding signal (z-score)", "setting": "[10]", "value": -0.133}, {"measurement": "glycan array binding signal (z-score)", "setting": "[11]", "value": -0.694}, {"measurement": "glycan array binding signal (z-score)", "setting": "[12]", "value": -0.677}, {"measurement": "glycan array binding signal (z-score)", "setting": "Gal(b1-4)Glc", "value": -0.088}, {"measurement": "glycan array binding signal (z-score)", "setting": "Gal(b1-4)Glc6S", "value": 0.533}, {"measurement": "glycan array binding signal (z-score)", "setting": "Gal(b1-4)GlcNAc", "value": -0.135}, {"measurement": "glycan array binding signal (z-score)", "setting": "[13]", "value": -0.514}, {"measurement": "glycan array binding signal (z-score)", "setting": "[14]", "value": -0.371}, {"measurement": "glycan array binding signal (z-score)", "setting": "[15]", "value": -0.544}, {"measurement": "glycan array binding signal (z-score)", "setting": "[16]", "value": -0.621}, {"measurement": "glycan array binding signal (z-score)", "setting": "[17]", "value": -0.691}, {"measurement": "glycan array binding signal (z-score)", "setting": "[18]", "value": 0.126}, {"measurement": "glycan array binding signal (z-score)", "setting": "[19]", "value": -0.476}, {"measurement": "glycan array binding signal (z-score)", "setting": "[20]", "value": -0.226}, {"measurement": "glycan array binding signal (z-score)", "setting": "[21]", "value": -0.65}, {"measurement": "glycan array binding signal (z-score)", "setting": "[22]", "value": -0.512}, {"measurement": "glycan array binding signal (z-score)", "setting": "[23]", "value": -0.749}, {"measurement": "glycan array binding signal (z-score)", "setting": "Gal3S(b1-3)GalNAc", "value": -0.323}, {"measurement": "glycan array binding signal (z-score)", "setting": "Gal3S(b1-3)GlcNAc", "value": 0.176}, {"measurement": "glycan array binding signal (z-score)", "setting": "[24]", "value": -0.017}, {"measurement": "glycan array binding signal (z-score)", "setting": "Gal3S(b1-4)Glc", "value": 1.13}, {"measurement": "glycan array binding signal (z-score)", "setting": "Gal3S(b1-4)Glc6S", "value": 3.21}, {"measurement": "glycan array binding signal (z-score)", "setting": "Gal3S(b1-4)GlcNAc", "value": 0.028}, {"measurement": "glycan array binding signal (z-score)", "setting": "Gal3S(b1-4)GlcNAc6S", "value": 1.83}, {"measurement": "glycan array binding signal (z-score)", "setting": "Gal3S6S(b1-4)GlcNAc", "value": 1.03}, {"measurement": "glycan array binding signal (z-score)", "setting": "Gal3S6S(b1-4)GlcNAc6S", "value": 7.38}, {"measurement": "glycan array binding signal (z-score)", "setting": "Gal4S(b1-4)GlcNAc", "value": -0.042}, {"measurement": "glycan array binding signal (z-score)", "setting": "Gal4S6S(b1-4)GlcNAc", "value": 1.13}, {"measurement": "glycan array binding signal (z-score)", "setting": "Gal6S(b1-4)Glc", "value": 0.485}]}
